The list shows a part of the results. Sequences were assembled here from the parent chain. Inactive controls read about 0.05.
B1: TEV protease; numbered along this chain (parent)
chain: MGESLFKGPRDYNPISSSICHLTNESDGHTTSLYGIGFGPFIITNKHLFRRNNGTLVVQSLHGVFKVKDTTTLQQHLVDGRDMIIIRMPKDFPPFPQKLKFREPQREERICLVTTNFQTKSMSSMVSDTSCTFPSGDGIFWKHWIQTKDGQCGSPLVSTRDGFIVGIHSASNFTNTNNYFTSVPKNFMELLTNQEAQQWVSGWRLNADSVLWGGHKVFMVKPEEPFQPVKEATQL

Variants of: B1
Assay: raw area under fraction-flipped curve 0-4 h after induction (AUC4h, not background-subtracted), DNA-recorder readout of cleavage of the substrate (dimensionless); higher = more cleavage of the substrate by the protease variant
Conditions: temperature: 34 °C; time window: 0-4 h after rhamnose induction
Protocol: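 In vivo DNA recorder in E. coli TOP10(DE3) ΔrhaA at 34 °C. Each TEVp single-site mutant (parent TEVp 0) is paired with a single-site variant of the 7-mer TEVs (canonical ENLYFQ|S). The substrate sits between flexible linkers in a Bxb1-sfGFP-TEVs-SsrA fusion, so cleavage stabilises Bxb1 and speeds flipping of a recombination array, read by NGS. The value is the raw area under the fraction-flipped curve over 0-4 h after rhamnose induction (AUC4h), with ≥20 reads per time point. It is not background-subtracted; inactive controls average about 0.047.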
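Also: Bxb1 expression induced with 0.2% (w/v) L-rhamnose at OD600 near 0.5, cultures sampled hourly, flipped fraction per protease–substrate barcode pair counted by paired-end Illumina sequencing.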

| Variant | area with substrate ENLYAQS | area with substrate ENLYCQS | area with substrate ENLYDQS | area with substrate ENLYEQS | area with substrate ENLYGQS | area with substrate ENLYHQS | area with substrate ENLYIQS | area with substrate ENLYKQS | area with substrate ENLYLQS | area with substrate ENLYMQS | area with substrate ENLYNQS | area with substrate ENLYPQS | area with substrate ENLYQQS | area with substrate ENLYRQS | area with substrate ENLYSQS | area with substrate ENLYVQS | area with substrate ENLYWQS | area with substrate ENLYTQS | area with substrate ENLYYQS |
| --- | --- | --- | --- | --- | --- | --- | --- | --- | --- | --- | --- | --- | --- | --- | --- | --- | --- | --- | --- |
| H21D | 0.0602 | 0.0602 | 0.0564 | 0.0516 | 0.0572 | 0.0772 | 0.0831 | 0.0315 | 0.0516 | 0.0686 | 0.0649 | 0.068 | 0.0446 | 0.0529 | 0.0672 | 0.0838 | 0.0594 | – | – |
| H21G | 0.0713 | 0.0888 | 0.0632 | 0.0645 | 0.0593 | 0.0724 | 0.139 | 0.0538 | – | 0.0772 | 0.0629 | 0.0697 | 0.0693 | 0.0568 | 0.0743 | 0.108 | 0.0805 | 0.0992 | 0.0664 |
| H21N | 0.0748 | 0.0687 | 0.0616 | 0.0314 | 0.0668 | 0.0546 | 0.104 | 0.061 | – | 0.0967 | – | 0.069 | 0.0564 | 0.0574 | 0.0636 | 0.107 | 0.0713 | – | – |
| L22W | 0.0491 | – | – | 0.0462 | 0.0596 | – | 0.0513 | 0.0543 | 0.027 | 0.0728 | 0.0453 | 0.0357 | 0.0375 | – | 0.0513 | – | 0.046 | 0.0224 | – |
| T23S | 0.076 | – | 0.064 | 0.0749 | 0.061 | 0.0684 | 0.102 | 0.0536 | – | 0.0754 | 0.0606 | 0.0695 | 0.0524 | 0.0488 | 0.0787 | 0.096 | 0.0803 | 0.0735 | 0.0842 |
| E25P | 0.0558 | 0.0577 | 0.0633 | 0.0569 | 0.0366 | 0.06 | 0.067 | 0.0614 | 0.0625 | 0.0596 | 0.0581 | 0.062 | 0.0564 | 0.0586 | 0.0601 | 0.0654 | 0.0512 | – | 0.0571 |
| S26C | 0.0649 | 0.0767 | 0.0963 | 0.0739 | 0.0749 | 0.0534 | 0.106 | 0.0389 | 0.0729 | 0.0748 | 0.0699 | – | 0.0468 | 0.0596 | 0.0757 | 0.0993 | 0.0555 | – | – |
| S26F | 0.0625 | 0.0583 | 0.0695 | 0.0573 | 0.0763 | – | 0.0866 | 0.0529 | 0.0745 | 0.0838 | 0.0637 | 0.0637 | 0.0766 | – | 0.0625 | 0.0805 | – | – | 0.0633 |
| S26K | 0.058 | 0.0944 | 0.0515 | 0.0676 | 0.0662 | 0.057 | – | 0.0278 | – | 0.054 | 0.0544 | 0.0563 | 0.0595 | 0.0575 | 0.0578 | 0.0763 | 0.06 | 0.0643 | 0.0539 |
| D27A | 0.0692 | – | 0.0584 | 0.0653 | 0.0592 | 0.0592 | 0.106 | 0.0395 | 0.0781 | 0.0836 | 0.0747 | 0.0735 | 0.0522 | 0.0539 | 0.0695 | – | 0.0749 | 0.0819 | 0.0597 |
| G28C | 0.0567 | – | 0.069 | 0.0594 | 0.0984 | 0.057 | – | 0.0553 | 0.0682 | 0.0799 | 0.0593 | 0.0658 | 0.064 | 0.058 | 0.063 | 0.109 | 0.0741 | – | 0.0828 |
| H29A | 0.0906 | – | 0.0374 | 0.0685 | 0.0694 | 0.0684 | 0.122 | 0.0501 | – | 0.0793 | 0.0651 | 0.0681 | 0.0615 | 0.0436 | 0.103 | 0.127 | 0.0716 | 0.0611 | 0.0704 |
| H29D | 0.0699 | – | 0.0519 | 0.061 | 0.0575 | 0.08 | 0.14 | 0.0572 | – | 0.0801 | 0.076 | 0.0831 | 0.0724 | 0.0494 | – | – | 0.0742 | 0.0929 | 0.0661 |
| H29E | 0.0745 | – | 0.0642 | 0.108 | – | 0.0675 | 0.153 | 0.0489 | – | 0.108 | 0.0744 | 0.0604 | 0.0277 | 0.0742 | 0.0948 | 0.139 | 0.0992 | 0.0881 | – |
| H29L | 0.107 | – | 0.0586 | 0.0637 | 0.0674 | 0.0645 | 0.107 | 0.0649 | – | 0.0818 | 0.0776 | 0.0771 | 0.0674 | 0.0641 | 0.0791 | 0.144 | – | 0.0879 | – |
| T30F | 0.0755 | – | 0.0579 | 0.0709 | 0.0557 | 0.0669 | 0.106 | 0.0795 | 0.0904 | 0.0838 | 0.0726 | 0.0669 | 0.0542 | 0.0416 | – | 0.102 | 0.0725 | 0.0951 | 0.0498 |
| T31F | 0.0791 | – | 0.0593 | 0.071 | 0.0526 | 0.0643 | 0.0931 | 0.0523 | 0.0731 | 0.105 | 0.0669 | 0.0696 | 0.0609 | 0.0623 | 0.0743 | 0.0815 | 0.0732 | 0.0493 | – |
| T31W | 0.0771 | – | 0.0535 | 0.0966 | 0.0805 | 0.0627 | 0.103 | 0.0442 | 0.0813 | 0.0705 | 0.067 | 0.0718 | 0.0422 | 0.0609 | 0.091 | 0.0639 | 0.0814 | 0.0905 | 0.0535 |
| S32H | 0.076 | – | 0.0729 | 0.0715 | 0.0559 | 0.0614 | 0.106 | 0.0444 | 0.0811 | 0.0846 | 0.0635 | 0.075 | 0.0502 | 0.0512 | 0.0615 | 0.117 | 0.0736 | – | 0.0727 |
| L33P | 0.043 | 0.0467 | – | 0.0649 | 0.0467 | 0.041 | 0.0504 | 0.0501 | – | 0.0499 | 0.0405 | 0.0548 | 0.045 | 0.0505 | 0.0445 | 0.0443 | 0.0516 | 0.0417 | 0.0515 |
| I36A | 0.0581 | – | 0.0507 | 0.0596 | 0.0731 | 0.0633 | 0.0907 | 0.0536 | – | 0.0655 | 0.0577 | 0.0814 | 0.0544 | 0.0813 | 0.0553 | 0.101 | 0.0584 | 0.0676 | – |
| I36D | 0.04 | – | 0.0272 | 0.0463 | 0.0463 | 0.0419 | 0.0376 | 0.0475 | 0.0355 | 0.0734 | 0.0454 | 0.0354 | 0.0506 | 0.0472 | 0.0336 | 0.043 | 0.0488 | – | 0.0471 |

From the supplement of paper PMC12217912
